# Measurements as given in PubChem BioAssay AID925 (National Center for Advancing Translational Sciences (NCATS), 2007).
# Screen size: about 65,000 compounds; about 40 (0.06%) were called active. The shares of active, inactive and inconclusive entries below differ from those in the screen. Calls come from the whole dose curve; as a rule, active = well fitted activation curve with a large enough effect; inconclusive = small, poorly fitted or top-dose-only effect; inactive = flat fitted curve, though single readings scatter. Potencies of inconclusive entries are left out as doubtful fits.
# Experiment: qHTS Assay for Modulators of Hemoglobin Beta Chain Splicing; for activation: 0% is about no effect
# Settings: HBB splicing reporter cell assay, EGFP reporter with mutant IVS2-654 intron; Potency: activation; activation: at 46.1 µM (top of the series), normalised to 500 nM splice-correcting PNA
# From the text: NIH Chemical Genomics Center [NCGC]
# NIH Molecular Libraries Screening Centers Network [MLSCN]
# PI Name: Dr. Ryszard Kole
# Modulation of Alternative Splicing as Therapy
# Abnormal splicing is associated with a number of diseases, including cancer and genetic diseases such as cystic fibrosis, muscular dystrophy and beta-thalassemia. Alteration of disease associated splicing patterns provides a promising target for treatment. […] Mutations in the second intron of the beta-globin gene at positions are clinically relevant and cause mis-splicing which results in an out of frame gene product.
# EGFP-654 and 705 HeLa Cells as screen system.
# HeLa cell lines were stably transfected with a construct in which the EGFP (enhanced green fluorescent protein) cDNA was interrupted by the second intron of the beta-globin gene (IVS2-654). The ISV2 intron contains mutations which cause mis-splicing of EGFP and premature termination of EGFP which results in a nonfluorescent protein product. […] Expression of the transgene was driven by the CMV promoter. We concluded that a low molecular weight compound, which restored correct splicing of intron 2 would also generate functional EGFP protein, resulting in a fluorescent signal. Thus, the HeLa cells that express the EGFP-654 construct can be used for high throughput screening of a chemical library.
# NCGC Assay Protocol Summary:
# High Throughput Screening. Freshly thawed HeLa EGFP-654 cells were seeded in 5 ul of optimem media (Invitrogen) containing 2 % fetal calf serum (Hyclone) and 1x penicillin/streptomycin (Invitrogen) at a concentration of 500 cells per well in 1536-well plates. Cells were incubated overnight at 37C in 5% CO2. The next day, cells were treated with DMSO, 500 nM antisense ISV2 654 PNA control oligo, or library compound and allowed to grow at 37C in 5% CO2 for 2 days. The PNA oligo blocked the mutation site in the intron and allowed proper (wild type) splicing to occur, resulting in full length EGFP expression and also allowed for optimization of the assay parameters. Plates were read in the Acumen Explorer (TTP Labtech) using 488 nm laser excitation and 500-520 nm emission PMT filter in a 1 x […] capture mode. Fluorescnet Fluorescent objects ranging in size from […] were measured and the total peak GFP intensity for each well was used for data analysis.
# Keywords: Thalassemia, beta-thalassemia, beta-globin, EGFP, ISV2 654, ISV2 705, SSO, PNA, antisense, splicing, MLSMR, MLSCN, NIH Roadmap, qHTS, NCGC
# Potency is the fitted concentration of half-maximal effect.
SMILES,Potency,activation
O=c1oc2c(CN3CCCCCC3)c(O)ccc2cc1-c1nc2ccccc2[nH]1,"inconclusive [activator, partial curve]",–
N#Cc1c(C(F)(F)F)cc(-c2ccco2)nc1SCc1ccccn1,active: 15.8 µM,–
C[C@@H](C(=O)Nc1ccc2ccccc2c1)[C@H]1C[C@]1(C)[C@H](NC(=O)c1cccnc1)c1ccccc1,–,inactive: 2.83%
CN(C)C=Nc1c(Br)cc(Br)c2nonc12,"inconclusive [activator, full curve, poor fit]",–
CCCn1c(SCC(=O)NC(=O)NCc2ccco2)n[nH]c1=O,–,inconclusive: 16.2% [activator]
COc1ccc2nc(NC(=O)c3ccoc3C)sc2c1,–,inconclusive: 12.2% [activator]
Oc1ccc(O)cc1,"inconclusive [activator, single point]",–
Oc1c(CN2CCc3ccccc3C2)cc(Cl)c2cccnc12,–,inactive: -1.57%
O=c1[nH]n(-c2cccc3cccnc23)c(=O)c2ccccc12,–,inactive: -0.388%
Cn1c(-c2c(N)n(C3CCCC3)c3nc4ccccc4nc23)nc2ccccc21,–,inconclusive: 14.1% [activator]
CCn1c2ccccc2c2cc(N)ccc21,"inconclusive [activator, single point]",–
Cn1cc(C2=C(c3ccc(Cl)cc3Cl)C(=O)NC2=O)c2ccccc21,"inconclusive [activator, partial curve]",–
COc1ccc2nc(NC(=O)c3cnccn3)sc2c1,–,inactive: -2.89%
O=c1n(CC2CO2)c(=O)n(CC2CO2)c(=O)n1CC1CO1 (stereo not drawn),"inconclusive [activator, single point]",–
COC(=O)c1ccccc1COn1c(=O)c[n+]([O-])c2ccccc21,–,inconclusive: 18% [activator]
Cc1ccc(C2C(C#N)=C(N)Oc3c2sc2ccccc32)o1 (stereo not drawn),"inconclusive [activator, single point]",–
CCCn1c(CCC(=O)O)ccc1-c1ccc(F)cc1,–,inactive: 3.45%
CN(C)c1ncc2nc(-c3cc(F)cc(F)c3)c(=O)n(CCc3ccccc3)c2n1,"inconclusive [activator, single point]",–
COC(=O)[C@H]1[C@H]2C[C@@H]3c4[nH]c5cc(OC)ccc5c4CCN3C[C@H]2C[C@@H](OC(=O)c2cc(OC)c(OC)c(OC)c2)[C@@H]1OC,"inconclusive [activator, partial curve]",–
Cc1cccc(N2C(=O)c3cccc4c(N(C)CCO)ccc(c34)C2=O)c1,active: 20 µM,–
CC1=C(C(=O)OCCOC(C)C)C(c2cccnc2)C2=C(CCCC2=O)N1 (stereo not drawn),–,inactive: 2.13%
COc1cccc(Nc2ncc3nc(-c4ccc(Cl)cc4)c(=O)n(C[C@H]4CCCO4)c3n2)c1,"inconclusive [activator, single point]",–
Nc1cccc2cc(S(=O)(=O)Nc3ccc(C(=O)O)cc3)ccc12,–,"inactive: -0.396% [at 9.22 µM, normalised to 500 nM splice-correcting PNA]"
CC(=O)NCc1nc2ccccc2n1Cc1ccccc1F,–,inconclusive: 13.6% [activator]

SMILES,Potency,activation
COCCn1c(=O)c(-c2cc(F)cc(F)c2)nc2cnc(Nc3cccc(OC)c3)nc21,"inconclusive [activator, partial curve]",–
CC(=O)c1cccc(NC(=O)c2cc3ccccn3n2)c1,–,inactive: -0.522%
CC(=O)Nc1ccc(S(=O)(=O)Nc2nc3ccccc3nc2Sc2nncn2C)cc1,"inconclusive [activator, single point]",–
Cc1ccc(C2C3CSCC=C3C(C#N)=C(N)C2(C#N)C#N)cc1 (stereo not drawn),"inconclusive [activator, single point]",–
COc1cccc(Nc2ncc3nc(-c4cccs4)c(=O)n(Cc4cccs4)c3n2)c1,active: 12.6 µM,–
CN(C)c1ccc(NC(=O)c2ccc(COc3cccc(Cl)c3)o2)cc1,–,inactive: -0.887%
CCN(CC)c1ccc2cc(-c3nc4ccccc4n3C)c(=O)oc2c1,"inconclusive [activator, partial curve]",–
C/C(=N\NC(=O)c1ccncc1)c1ccc2ccccc2c1O,"inconclusive [activator, single point]",–
Cc1cc(C)c(/C=C2/C(=O)Nc3ccccc32)[nH]1,active: 31.6 µM,–
COCCn1c(=O)c(-c2ccc(F)cc2)nc2cnc(Nc3cccc(OC)c3)nc21,active: 20 µM,–
COc1ccc(-c2ccc(-c3nnn(CC(=O)N4CCOCC4)n3)cc2)cc1,–,"inactive: -0.27% [at 57.5 µM, normalised to 500 nM splice-correcting PNA]"
C1=C(c2ccc(-c3ccccc3)cc2)Nc2ncnn2C1c1ccco1 (stereo not drawn),"inconclusive [activator, single point]",–
CCCCNC(=O)C(C#N)c1nc2ccccc2nc1N1CCCC1 (stereo not drawn),"inconclusive [activator, single point]",–
C=CCn1c(NC(=O)c2ccccc2Cl)c(C#N)c2nc3ccccc3nc21,–,inconclusive: 12.8% [activator]
c1ccc(-c2nnc(SCc3cn4ccsc4n3)o2)cc1,–,inactive: -2.51%
O=C1C(O)CC2c3ccccc3CC3(CCCC3)N12 (stereo not drawn),"inconclusive [activator, single point]",–
O=C(O)[C@@H]1[C@@H](C(=O)O)[C@]23C[C@@]2(C(=O)O)[C@]2(C(=O)O)CCC3=C3CCCC312,–,"inactive: 0.251% [at 9.22 µM, normalised to 500 nM splice-correcting PNA]"
COc1cccc(Cn2c(=O)c(-c3cccs3)nc3cnc(N4CCN(C)CC4)nc32)c1,–,inconclusive: 14.9% [activator]
CCSc1nnc(NC(=O)c2cc(C)oc2C)s1,–,inactive: -0.378%
Cn1c(C(=O)NCc2ccc3c(c2)OCO3)cc2sccc21,–,inactive: -0.997%
COC(=O)C1=CN(C(C)C)C=C(C(=O)OC)C1c1cccc(OC)c1,–,inactive: -4.32%
O=C(Cl)c1ccc([N+](=O)[O-])cc1,–,inactive: -0.798%
Cc1ccc2oc3c(c(=O)c2c1)C(c1cccs1)N(CCCN(C)C)C3=O (stereo not drawn),–,inconclusive: 12.4% [activator]
COc1cccc(Cn2c(=O)cnc3cnc(Nc4ccccc4)nc32)c1,"inconclusive [activator, single point]",–
